# According to the supplement of paper PMC8728848:
# The other results are listed elsewhere or left out.
# Key:
# Assay in all cases: glycan array binding signal (z-score within array); higher = stronger binding
# Conditions in all cases: glycan notation: IUPAC condensed, linker removed
# [1] = biological target: Gal(b1-3)GlcNAc(a1-3)Gal(b1-4)GlcNAc
# In short: (§1)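 From the Consortium for Functional Glycomics database, 3228 arrays were curated, keeping only those whose protein sequence was available. Binding is given as a within-array Z-score averaged across arrays sharing a protein sequence and across linkers. Negative Z-scores can be read as non-binding.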
# [2] = biological target: Gal(b1-3)GlcNAc(a1-6)Gal(b1-4)GlcNAc
# In short: as §1
# Gal(b1-3)GlcNAc(b1-2)Man = biological target: Gal(b1-3)GlcNAc(b1-2)Man
# In short: as §1
# [3] = biological target: Gal(b1-3)GlcNAc(b1-2)Man(a1-3)[Gal(b1-3)GlcNAc(b1-2)Man(a1-6)]Man(b1-4)GlcNAc(b1-4)GlcNAc
# In short: as §1
# [4] = biological target: Gal(b1-3)GlcNAc(b1-2)Man(a1-3)[Gal(b1-3)GlcNAc(b1-2)Man(a1-6)]Man(b1-4)GlcNAc(b1-4)[Fuc(a1-6)]GlcNAc
# In short: as §1
# [5] = biological target: Gal(b1-3)GlcNAc(b1-2)Man(a1-3)[GlcNAc(b1-4)][Gal(b1-3)GlcNAc(b1-2)Man(a1-6)]Man(b1-4)GlcNAc(b1-4)GlcNAc
# In short: as §1
# [6] = biological target: Gal(b1-3)GlcNAc(b1-2)[Gal(b1-3)GlcNAc(b1-6)]Man(a1-6)[Gal(b1-3)GlcNAc(b1-2)Man(a1-3)]Man(b1-4)GlcNAc(b1-4)GlcNAc
# In short: as §1
# [7] = biological target: Gal(b1-3)GlcNAc(b1-3)Gal(b1-3)GlcNAc
# In short: as §1
# [8] = biological target: Gal(b1-3)GlcNAc(b1-3)Gal(b1-4)Glc
# In short: as §1
# [9] = biological target: Gal(b1-3)GlcNAc(b1-3)Gal(b1-4)GlcNAc
# In short: as §1
# [10] = biological target: Gal(b1-3)GlcNAc(b1-3)Gal(b1-4)GlcNAc(b1-2)Man(a1-3)[Gal(b1-3)GlcNAc(b1-3)Gal(b1-4)GlcNAc(b1-2)Man(a1-6)]Man(b1-4)GlcNAc(b1-4)GlcNAc
# In short: as §1
# [11] = biological target: Gal(b1-3)GlcNAc(b1-3)Gal(b1-4)GlcNAc(b1-2)[Gal(b1-3)GlcNAc(b1-3)Gal(b1-4)GlcNAc(b1-6)]Man(a1-6)[Gal(b1-3)GlcNAc(b1-3)Gal(b1-4)GlcNAc(b1-2)Man(a1-3)]Man(b1-4)GlcNAc(b1-4)[Fuc(a1-6)]GlcNAc
# In short: as §1
# [12] = biological target: Gal(b1-3)GlcNAc(b1-3)Gal(b1-4)GlcNAc(b1-3)Gal(b1-4)GlcNAc(b1-2)[Gal(b1-3)GlcNAc(b1-3)Gal(b1-4)GlcNAc(b1-3)Gal(b1-4)GlcNAc(b1-6)]Man(a1-6)[Gal(b1-3)GlcNAc(b1-3)Gal(b1-4)GlcNAc(b1-3)Gal(b1-4)GlcNAc(b1-2)Man(a1-3)]Man(b1-4)GlcNAc(b1-4)[Fuc(a1-6)]GlcNAc
# In short: as §1
# [13] = biological target: Gal(b1-3)GlcNAc(b1-3)Gal(b1-4)GlcNAc(b1-6)[Gal(b1-3)GlcNAc(b1-3)]Gal(b1-4)Glc
# In short: as §1
# [14] = biological target: Gal(b1-3)GlcNAc(b1-3)Gal(b1-4)[Fuc(a1-3)]GlcNAc
# In short: as §1
# [15] = biological target: Gal(b1-3)GlcNAc(b1-3)Gal(b1-4)[Fuc(a1-3)]GlcNAc(b1-6)[Gal(b1-3)GlcNAc(b1-3)]Gal(b1-4)Glc
# In short: as §1
# [16] = biological target: Gal(b1-3)GlcNAc(b1-3)GalNAc
# In short: as §1
# [17] = biological target: Gal(b1-3)GlcNAc(b1-6)Gal(b1-4)GlcNAc
# In short: as §1
# [18] = biological target: Gal(b1-3)GlcNAc(b1-6)GalNAc
# In short: as §1
# [19] = biological target: Gal(b1-3)GlcNAc(b1-6)[Gal(b1-3)]GalNAc
# In short: as §1
# Gal(b1-3)GlcNAc6S = biological target: Gal(b1-3)GlcNAc6S
# In short: as §1
# [20] = biological target: Gal(b1-3)[Fuc(a1-4)]GlcNAc
# In short: as §1
binder,measurement,setting,value
Jacalin (Artocarpus integrifolia) (protein) MAYSSLLSLSVLALLFSISSADTRKWFLANGINQNPIGIIEAAVGVSEDLLNLNGMEAKNDEQSGISQTVIVGPWGAKVSTSSNGKAFDDGAFTGIREINLSYNKETAIGDFQVVYDLNGSPYVGQNHKSFITGFTPVKISLDFPSEYIMEVSGYTGNVSGYVVVRSLTFKTNKKTYGPYGVTSGTPFNLPIENGLIVGFKGSIGYWLDYFSMYLSL,glycan array binding signal (z-score),[1],-0.291
same,glycan array binding signal (z-score),[2],-0.256
same,glycan array binding signal (z-score),Gal(b1-3)GlcNAc(b1-2)Man,-0.247
same,glycan array binding signal (z-score),[3],-0.219
same,glycan array binding signal (z-score),[4],0.255
same,glycan array binding signal (z-score),[5],-0.24
same,glycan array binding signal (z-score),[6],-0.245
same,glycan array binding signal (z-score),[7],-0.241
same,glycan array binding signal (z-score),[8],-0.279
same,glycan array binding signal (z-score),[9],-0.276
same,glycan array binding signal (z-score),[10],-0.241
same,glycan array binding signal (z-score),[11],-0.084
same,glycan array binding signal (z-score),[12],0.113
same,glycan array binding signal (z-score),[13],-0.275
same,glycan array binding signal (z-score),[14],-0.27
same,glycan array binding signal (z-score),[15],-0.258
same,glycan array binding signal (z-score),[16],1.05
same,glycan array binding signal (z-score),[17],-0.276
same,glycan array binding signal (z-score),[18],-0.279
same,glycan array binding signal (z-score),[19],-0.251
same,glycan array binding signal (z-score),Gal(b1-3)GlcNAc6S,-0.272
same,glycan array binding signal (z-score),[20],-0.272
